According to a collection of fitness landscapes (doi:10.1126/science.1257360):
The list shows a part of the results.

B1: PhoQ; a variant is named by its letters at X, in order, P23837 (parent)
chain: MKKLLRLFFPLSLRVRFLLATAAVVLVLSLAYGMVALIGYSVSFDKTTFRLLRGESNLFYTLAKWENNKLHVELPENIDKQSPTMTLIYDENGQLLWAQRDVPWLMKMIQPDWLKSNGFHEIEADVNDTSLLLSGDHSIQQQLQEVREDDDDAEMTHSVAVNVYPATSRMPKLTIVVVDTIPVELKSSYMVWSWFIYVLSANLLLVIPLLWVAAWWSLRPIEALAKEVRELEEHNRELLNPATTRELTSLVRNLNRLLKSERERYDKYRTTLTDLTHSLKTPLXXLQXXLRSLRSEKMSVSDAEPVMLEQISRISQQIGYYLHRASMRGGTLLSRELHPVAPLLDNLTSALNKVYQRKGVNISLDISPEISFVGEQNDFVEVMGNVLDNACKYCLEFVEISARQTDEHLYIVVEDDGPGIPLSKREVIFDRGQRVDTLRPGQGVGLAVAREITEQYEGKIVAGESMLGGARMEVIFGRQHSAPKDE

Variants of: B1
Assay: enrichment ratio after two sorts for PhoP signalling (ratio (wild type AVST 3.29)); higher = more functional
Conditions: with PhoP (E. coli)

**Q.** For TSRI, which enrichment ratio is on record?
**A.** Its enrichment ratio is at most 0.25.

**Q.** With LCEF as the variant, how does the enrichment ratio read?
**A.** Its enrichment ratio is at most 0.25.

**Q.** With PDDM as the variant, how does the enrichment ratio read?
**A.** Its enrichment ratio is at most 0.25.

**Q.** With YTHM as the variant, how does the enrichment ratio read?
**A.** Its enrichment ratio is at most 0.25.

**Q.** For PKLM, which enrichment ratio is on record?
**A.** The enrichment ratio was at most 0.25.

**Q.** Which enrichment ratio does the source give for QRHM here?
**A.** The enrichment ratio was at most 0.25.

**Q.** For SSNI, which enrichment ratio is on record?
**A.** The enrichment ratio was 7.29.

**Q.** For FPWI, which enrichment ratio is on record?
**A.** The enrichment ratio was at most 0.25.

**Q.** With HGQD as the variant, how does the enrichment ratio read?
**A.** Its enrichment ratio is at most 0.25.

**Q.** How did the enrichment ratio turn out when SLEE was run?
**A.** The enrichment ratio was at most 0.25.

**Q.** Which enrichment ratio does the source give for IERM here?
**A.** The enrichment ratio was at most 0.25.

**Q.** SWMH was tested. Which enrichment ratio did it give?
**A.** Its enrichment ratio is at most 0.25.

**Q.** For NLHG, which enrichment ratio is on record?
**A.** Its enrichment ratio is at most 0.25.

**Q.** TLNP was tested. Which enrichment ratio did it give?
**A.** The enrichment ratio was at most 0.25.

**Q.** How did the enrichment ratio turn out when PVLA was run?
**A.** Its enrichment ratio is at most 0.25.

**Q.** How did the enrichment ratio turn out when YHGP was run?
**A.** The enrichment ratio was at most 0.25.

**Q.** Which enrichment ratio does the source give for LHDA here?
**A.** Its enrichment ratio is at most 0.25.

**Q.** Which enrichment ratio does the source give for EGAD here?
**A.** The enrichment ratio was at most 0.25.

**Q.** Which enrichment ratio does the source give for KPCG here?
**A.** Its enrichment ratio is at most 0.25.

**Q.** How did the enrichment ratio turn out when RKYP was run?
**A.** The enrichment ratio was at most 0.25.

**Q.** For QAGL, which enrichment ratio is on record?
**A.** Its enrichment ratio is 4.95.

**Q.** How did the enrichment ratio turn out when NFKT was run?
**A.** Its enrichment ratio is at most 0.25.

**Q.** How did the enrichment ratio turn out when VASY was run?
**A.** The enrichment ratio was at most 0.25.

**Q.** How did the enrichment ratio turn out when GRRE was run?
**A.** Its enrichment ratio is at most 0.25.

**Q.** For TPGL, which enrichment ratio is on record?
**A.** Its enrichment ratio is at most 0.25.

**Q.** MQLR was tested. Which enrichment ratio did it give?
**A.** Its enrichment ratio is at most 0.25.

**Q.** With LAKA as the variant, how does the enrichment ratio read?
**A.** The enrichment ratio was at most 0.25.

**Q.** For ARYM, which enrichment ratio is on record?
**A.** Its enrichment ratio is at most 0.25.

**Q.** How did the enrichment ratio turn out when QLRF was run?
**A.** The enrichment ratio was at most 0.25.

**Q.** HSAL was tested. Which enrichment ratio did it give?
**A.** The enrichment ratio was at most 0.25.

**Q.** How did the enrichment ratio turn out when RWPL was run?
**A.** The enrichment ratio was at most 0.25.

**Q.** Which enrichment ratio does the source give for DGNG here?
**A.** Its enrichment ratio is at most 0.25.

**Q.** PEDK was tested. Which enrichment ratio did it give?
**A.** The enrichment ratio was at most 0.25.

**Q.** How did the enrichment ratio turn out when VAIL was run?
**A.** Its enrichment ratio is at most 0.25.

**Q.** How did the enrichment ratio turn out when VAWI was run?
**A.** Its enrichment ratio is at most 0.25.

**Q.** PAYQ was tested. Which enrichment ratio did it give?
**A.** Its enrichment ratio is at most 0.25.

**Q.** With HGHH as the variant, how does the enrichment ratio read?
**A.** Its enrichment ratio is at most 0.25.

**Q.** Which enrichment ratio does the source give for EQPG here?
**A.** The enrichment ratio was at most 0.25.

**Q.** How did the enrichment ratio turn out when EACH was run?
**A.** The enrichment ratio was 2.01.

**Q.** LSIL was tested. Which enrichment ratio did it give?
**A.** Its enrichment ratio is at most 0.25.

**Q.** Which enrichment ratio does the source give for YIIS here?
**A.** The enrichment ratio was at most 0.25.

**Q.** For QVYV, which enrichment ratio is on record?
**A.** The enrichment ratio was at most 0.25.

**Q.** With NSIF as the variant, how does the enrichment ratio read?
**A.** Its enrichment ratio is at most 0.25.

**Q.** FKWP was tested. Which enrichment ratio did it give?
**A.** Its enrichment ratio is at most 0.25.

**Q.** For DTGK, which enrichment ratio is on record?
**A.** Its enrichment ratio is at most 0.25.

**Q.** Which enrichment ratio does the source give for LQKN here?
**A.** The enrichment ratio was at most 0.25.

**Q.** How did the enrichment ratio turn out when LRKF was run?
**A.** Its enrichment ratio is at most 0.25.

**Q.** With VKQC as the variant, how does the enrichment ratio read?
**A.** Its enrichment ratio is at most 0.25.

**Q.** How did the enrichment ratio turn out when SHMD was run?
**A.** Its enrichment ratio is at most 0.25.

**Q.** With MYGV as the variant, how does the enrichment ratio read?
**A.** The enrichment ratio was at most 0.25.

**Q.** Which enrichment ratio does the source give for RRHF here?
**A.** Its enrichment ratio is at most 0.25.

**Q.** For EYEN, which enrichment ratio is on record?
**A.** The enrichment ratio was at most 0.25.

**Q.** With DTGC as the variant, how does the enrichment ratio read?
**A.** The enrichment ratio was at most 0.25.

**Q.** Which enrichment ratio does the source give for GQTT here?
**A.** The enrichment ratio was at most 0.25.

**Q.** Which enrichment ratio does the source give for TGLS here?
**A.** Its enrichment ratio is 14.9.

**Q.** Which enrichment ratio does the source give for HHFE here?
**A.** The enrichment ratio was at most 0.25.

**Q.** How did the enrichment ratio turn out when IMLS was run?
**A.** The enrichment ratio was at most 0.25.

**Q.** Which enrichment ratio does the source give for FEEQ here?
**A.** Its enrichment ratio is at most 0.25.

**Q.** For YECQ, which enrichment ratio is on record?
**A.** Its enrichment ratio is 30.7.

**Q.** With VVMM as the variant, how does the enrichment ratio read?
**A.** The enrichment ratio was at most 0.25.

**Q.** How did the enrichment ratio turn out when FWYC was run?
**A.** The enrichment ratio was at most 0.25.

**Q.** Which enrichment ratio does the source give for DRSP here?
**A.** Its enrichment ratio is at most 0.25.

**Q.** With RYRH as the variant, how does the enrichment ratio read?
**A.** The enrichment ratio was at most 0.25.

**Q.** How did the enrichment ratio turn out when TGCP was run?
**A.** Its enrichment ratio is at most 0.25.

**Q.** LYWI was tested. Which enrichment ratio did it give?
**A.** Its enrichment ratio is at most 0.25.

**Q.** For LNIE, which enrichment ratio is on record?
**A.** The enrichment ratio was at most 0.25.

**Q.** KYYF was tested. Which enrichment ratio did it give?
**A.** The enrichment ratio was at most 0.25.

**Q.** SAAA was tested. Which enrichment ratio did it give?
**A.** Its enrichment ratio is 2.1.

**Q.** Which enrichment ratio does the source give for VPPT here?
**A.** Its enrichment ratio is at most 0.25.

**Q.** With LKGE as the variant, how does the enrichment ratio read?
**A.** Its enrichment ratio is at most 0.25.

**Q.** How did the enrichment ratio turn out when QTSV was run?
**A.** The enrichment ratio was at most 0.25.

**Q.** Which enrichment ratio does the source give for FLKA here?
**A.** The enrichment ratio was at most 0.25.

**Q.** For HYNN, which enrichment ratio is on record?
**A.** Its enrichment ratio is at most 0.25.

**Q.** With EVQR as the variant, how does the enrichment ratio read?
**A.** The enrichment ratio was at most 0.25.

**Q.** How did the enrichment ratio turn out when SQNQ was run?
**A.** Its enrichment ratio is 6.74.

**Q.** Which enrichment ratio does the source give for EDRI here?
**A.** The enrichment ratio was at most 0.25.

**Q.** Which enrichment ratio does the source give for ANIA here?
**A.** Its enrichment ratio is at most 0.25.

**Q.** QSSA was tested. Which enrichment ratio did it give?
**A.** Its enrichment ratio is 4.92.

**Q.** With FQIF as the variant, how does the enrichment ratio read?
**A.** Its enrichment ratio is at most 0.25.

**Q.** For HFTK, which enrichment ratio is on record?
**A.** Its enrichment ratio is at most 0.25.

**Q.** With VTQR as the variant, how does the enrichment ratio read?
**A.** Its enrichment ratio is at most 0.25.

**Q.** With DSAR as the variant, how does the enrichment ratio read?
**A.** Its enrichment ratio is at most 0.25.

**Q.** With PLGQ as the variant, how does the enrichment ratio read?
**A.** Its enrichment ratio is at most 0.25.

**Q.** Which enrichment ratio does the source give for SETS here?
**A.** The enrichment ratio was 12.
